# Measurements reported in a collection of fitness landscapes (doi:10.1016/j.celrep.2020.107928).
# Whole data set: some 81,000 sequences, median “one-hybrid fitness for binding NBS DNA” near -0.1, cut for the highest 2% near 0.36. The list shows a part of the results.
# B1: Caulobacter ParB omega fusion; a variant is named by its letters at X, in order, B8GW30 (parent)
# chain: MESVVVGEPGMSEGRRGLGRGLSALLGEVDAAPAQAPGEQLGGSREAPIEILQRNPDQPRRTFREEDLEDLSNSIREKGVLQPILVRPSPDTAGEYQIVAGERAWRAAQRAGLKTVPIMVRELDDLAVLEIGIIENVQRADLNVLEEALSYKVLMEKFERTQENIAQTIGKSXSHVANXMRLLXLPDEVQSYLVSGELTAXHARAIAAAADPVALAKQIIEGGLSVRETEALARKAPNLSAGKSKGGRPPRVKDTDTQALESDLSSVLGLDVSIDHRGSTGTLTITYATLEQLDDLCNRLTRGI
# Variants of: B1
# Test: one-hybrid fitness for binding NBS DNA (the Noc-binding site; scaled: cognate 1, non-cognate 0); higher = stronger binding
# Conditions: with NBS DNA site
# Method in brief: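 On M9-minus-histidine containing 0.1 mM IPTG and 5 mM 3-AT, E. coli USO cells with a HIS3 reporter, site 19 bp from the promoter, grew 48 hours at 37°C to select Caulobacter ParB libraries randomised at four specificity codons. Plasmids from before and after were Illumina-sequenced, with three replicate libraries pooled and variants under 10 reads left out. Fitness is the log change in variant-to-wild-type read ratio, rescaled against cognate and non-cognate.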
row,Variant,one-hybrid fitness for binding NBS DNA
1,LWHM,≤ 0.2
2,TQYN,≤ 0.2
3,LATE,≤ 0.2
4,ANML,≤ 0.2
5,QDKL,≤ 0.2
6,FPCS,≤ 0.2
7,QTHV,0.288
8,APDT,≤ 0.2
9,WRGH,≤ 0.2
10,RQHQ,≤ 0.2
11,QNNG,≤ 0.2
12,RVET,≤ 0.2
13,TLDM,≤ 0.2
14,FAAP,≤ 0.2
15,DPEW,≤ 0.2
16,ECDS,≤ 0.2
17,PYSG,≤ 0.2
18,ESKR,0.206
19,SWSR,≤ 0.2
20,HSAA,≤ 0.2
21,FRST,≤ 0.2
22,TNVL,≤ 0.2
23,LTRF,≤ 0.2
24,NCER,≤ 0.2
25,NNQE,≤ 0.2
26,RMTT,0.434

row,Variant,one-hybrid fitness for binding NBS DNA
1,LAIL,≤ 0.2
2,NPTC,≤ 0.2
3,PVCR,≤ 0.2
4,QTEL,≤ 0.2
5,GNDS,≤ 0.2
6,ANHI,≤ 0.2
7,THVT,≤ 0.2
8,CQTT,≤ 0.2
9,HINA,≤ 0.2
10,QLNA,0.219
11,IKTC,≤ 0.2
12,SVFV,≤ 0.2
13,VGSG,≤ 0.2
14,NKQR,≤ 0.2
15,QELN,≤ 0.2
16,FGGC,≤ 0.2
17,WSRG,≤ 0.2
18,VTSK,≤ 0.2
19,NVKQ,≤ 0.2
20,VMGL,≤ 0.2
21,AYPD,≤ 0.2
22,TGTE,≤ 0.2
23,QTIH,0.221
24,GCAA,≤ 0.2
25,EAEG,≤ 0.2
26,LLRK,≤ 0.2

row,Variant,one-hybrid fitness for binding NBS DNA
1,PPLD,≤ 0.2
2,CPGT,≤ 0.2
3,IFHS,≤ 0.2
4,DAQW,≤ 0.2
5,DHHV,≤ 0.2
6,IATE,≤ 0.2
7,CNSS,≤ 0.2
8,GYWG,≤ 0.2
9,MSLL,≤ 0.2
10,QQAR,0.654
11,WALC,≤ 0.2
12,WGHS,≤ 0.2
13,FDRR,≤ 0.2
14,GLLR,≤ 0.2
15,TRNF,≤ 0.2
16,EAYR,≤ 0.2
17,CATI,≤ 0.2
18,QSKC,0.367
19,TNVR,≤ 0.2
20,ANKM,≤ 0.2
21,TCYK,≤ 0.2
22,MKFT,≤ 0.2
23,NMYI,≤ 0.2
24,RLMN,≤ 0.2
25,WRRA,≤ 0.2
26,ERKV,≤ 0.2

row,Variant,one-hybrid fitness for binding NBS DNA
1,LKQR,≤ 0.2
2,MGTG,≤ 0.2
3,RSWP,≤ 0.2
4,QPWY,≤ 0.2
5,DPTI,≤ 0.2
6,WTHP,≤ 0.2
7,DPVG,≤ 0.2
8,FRLR,≤ 0.2
9,QCIV,≤ 0.2
10,FYKL,≤ 0.2
11,REPT,≤ 0.2
12,HSKE,≤ 0.2
13,IRES,≤ 0.2
14,DVFN,≤ 0.2
15,WARM,≤ 0.2
16,QKSD,≤ 0.2
17,CLQR,≤ 0.2
18,FDIR,≤ 0.2
19,PWLK,≤ 0.2
20,VCQG,≤ 0.2
21,YATI,≤ 0.2
22,HTGR,≤ 0.2
23,YACC,≤ 0.2
24,QRPP,≤ 0.2
25,YTVW,≤ 0.2
26,MSNN,≤ 0.2

row,Variant,one-hybrid fitness for binding NBS DNA
1,LGNR,≤ 0.2
2,TPDW,≤ 0.2
3,KCTV,≤ 0.2
4,HIYA,≤ 0.2
5,PLDF,≤ 0.2
6,HQTY,≤ 0.2
7,KALW,≤ 0.2
8,SRAP,≤ 0.2
9,VCSD,≤ 0.2
10,MQTC,≤ 0.2
11,VRDT,≤ 0.2
12,NFAC,≤ 0.2
13,YLWR,≤ 0.2
14,VILP,≤ 0.2
15,FRPE,≤ 0.2
16,PNWT,≤ 0.2
17,QITK,≤ 0.2
18,RQHP,≤ 0.2
19,GPRP,≤ 0.2
20,HDMC,≤ 0.2
21,DYCS,≤ 0.2
22,MSRE,≤ 0.2
23,VKST,≤ 0.2
24,FHPR,≤ 0.2
25,PAVP,≤ 0.2
26,TNIC,≤ 0.2

row,Variant,one-hybrid fitness for binding NBS DNA
1,QCSS,0.449
2,LPVP,≤ 0.2
3,IQKV,≤ 0.2
4,NFAY,≤ 0.2
5,NKAA,≤ 0.2
6,MTHR,≤ 0.2
7,RCFW,≤ 0.2
8,FSTS,≤ 0.2
9,NGKR,≤ 0.2
10,QQFW,≤ 0.2
11,VVSV,≤ 0.2
12,WTHS,≤ 0.2
13,KRAP,≤ 0.2
14,NHPW,≤ 0.2
15,REHC,≤ 0.2
16,WTDW,≤ 0.2
17,QTCA,0.378
18,CCLR,≤ 0.2
19,HQGG,≤ 0.2
20,QYSA,0.201
21,MPRT,≤ 0.2
22,DPPW,≤ 0.2
23,RGHC,≤ 0.2
